Measurements as given in PMC3102746.
No constants are given. Whether binding was seen depends on the method and setting. In cells and extracts the contact can be indirect. Some binding calls cover weakened binding; strength is not graded here. Where a sequence is shown, tags or fusion partners need not be part of it. One block for each binder: values may come before it.

Experiments:
[1] = target: T1, myc-SYCE3 (mouse) (UniProt B5KM66); test: co-IP; COS-7 cells co-transfected with myc-SYCE3 and an EGFP fusion construct; immunoprecipitated overnight with anti-myc antibody (bait: myc-SYCE3), protein G dynabeads, Western blot
T1 sequence: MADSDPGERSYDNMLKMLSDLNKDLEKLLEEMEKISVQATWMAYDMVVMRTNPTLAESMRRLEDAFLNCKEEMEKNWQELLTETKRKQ

[2] = target: T2, EGFP-SYCE2 (UniProt Q505B8); test: co-IP; reverse co-IP: COS-7 cells co-transfected with myc-SYCE3 and an EGFP fusion construct; immunoprecipitated overnight with anti-EGFP antibody (bait: EGFP fusion), protein G dynabeads, Western blot
T2 sequence: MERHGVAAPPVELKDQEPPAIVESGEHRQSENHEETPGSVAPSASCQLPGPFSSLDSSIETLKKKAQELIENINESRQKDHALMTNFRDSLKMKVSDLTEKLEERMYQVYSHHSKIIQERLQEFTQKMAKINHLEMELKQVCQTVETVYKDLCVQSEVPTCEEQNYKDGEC

[3] = target: T3, EGFP-SYCE1 (UniProt Q9D495); test: as above
T3 sequence: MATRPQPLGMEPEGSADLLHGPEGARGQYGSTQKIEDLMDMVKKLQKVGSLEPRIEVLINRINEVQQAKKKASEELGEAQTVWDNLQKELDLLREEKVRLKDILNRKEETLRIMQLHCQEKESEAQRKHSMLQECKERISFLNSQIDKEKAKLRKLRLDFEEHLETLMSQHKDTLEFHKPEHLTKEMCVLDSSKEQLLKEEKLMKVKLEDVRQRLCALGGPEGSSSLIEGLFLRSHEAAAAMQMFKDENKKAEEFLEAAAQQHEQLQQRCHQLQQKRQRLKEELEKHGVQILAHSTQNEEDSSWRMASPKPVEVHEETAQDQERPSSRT

- binding [1]: binds
B1: EGFP-SYCE2 (protein, UniProt Q505B8 1-171)
chain: T2 sequence

- binding [1]: no binding
B2: Tex12-EGFP (protein, UniProt Q9CR81 1-123)
chain: MMANHLVKPDSRNCKRARELEPQVSDSPQVSSLGKSESSLSEASGLFYKEEALEKDLSDMSKEINLMLSTYAKILSERAAVDASYIDEIDGLFKEANIIENFLVQKREFLKQRFTVITNTLHK

- binding [1]: no binding
B3: EGFP-SYCP1 820–997 (domain or fragment, UniProt Q03410 820-997)
chain: SLLESPEATSWKFDSKTTPSQNISRLSSSMDSGKSKDNRDSLRASAKSILSTTVTKEYTVKTPTKKSIYQRENKYLPTGGSNKKRKTVFEFDVNSDSSETTDLLSLVSEEDISNRIYNNNTPDSHLLVKTPKQTPLSLSTPASFTKFGSLKKMREDRWATIAKIDRKRRLKEAEKLFT

- binding [2]: binds
- binding [3]: binds
B4: myc-SYCE3 (protein, UniProt B5KM66 1-88)
chain: T1 sequence

- binding [1]: binds
B5: EGFP-SYCE1 (protein, UniProt Q9D495 1-329)
chain: T3 sequence
